The text below walks through data of the RNAGym collection of RNA variant scans (doi:10.7554/elife.90254).

The source gives no read counts; variants with many changes may rest on few reads.

B1: OR4K15 (parent)
chain: GUUAACGGUCAUAGGCCAUGGAAACUAGGAGCACCAUUUCGCUGCCAGUGAAGAAAUGAACAAAGAAAAUCUGGGCCAGGCAGGCAUCAAAAGAAAUAGUCUUGCGCUCAACCAGAAAGUCUGUAAUCAUUUUAAGGGUA

Variants of B1 are the subject of this data set. As to the kind of experiment: self-cleavage, relative activity (ratio to wild type); higher = more cleavage; in vitro, sequencing; the parent is a self-cleaving ribozyme.
Take A24G U38C A63C: the self-cleavage worked out at 0.66.

Consider A24G C40U A116U, for which the self-cleavage was 0.62.

Regarding A24G U39C U72C A96G A114C U133C, the self-cleavage came to 0.02.

For the variant A24G U103C U120C U131C, the self-cleavage is 0.21.

For the variant A23G A125G A135G, the self-cleavage is 0.44.

Regarding A24G A30G G48A A60G, the self-cleavage was 0.58.

Turning to A24G A51G A95G U122C, the self-cleavage is 1.06.

Regarding A23G C85G U122C, the self-cleavage came to 0.64.

Regarding A24U A54G A92G, the self-cleavage was 1.06.

With A24G U49G U100C U102C U132C, the self-cleavage was determined as 0.63.

In the case of A23G U39A A86G, the self-cleavage was determined as 1.45.

Turning to A24U A64G A94G A98G, the self-cleavage turned out to be 0.71.

A23G U38C A60U: the self-cleavage worked out at 1.72.

As to A24U A33G A92G U122C, the self-cleavage came out at 0.48.

Consider A24U A60G A67G U72A A98U U108C, for which the self-cleavage was found to be 0.

Take A24G A118G A125G U132A A135G: the self-cleavage came out at 0.03.

Consider A24U A51U U122C, for which the self-cleavage stood at 1.57.

Take A24G A54G A66U A118G: the self-cleavage was determined as 0.29.

Consider A23G U103A A129G, for which the self-cleavage stood at 0.39.

As for A23G U38G A78G C112U U120A, the self-cleavage is 0.01.

For the variant A24C A33G G44A C77U A96G, the self-cleavage worked out at 0.85.

With A24G G75A A126G, the self-cleavage amounted to 0.06.

A24U A64G A117U A134G A135G: the self-cleavage is 0.68.

As to A23G U43C A118G, the self-cleavage was 1.7.

Take A23G U131C G136U: the self-cleavage came to 1.69.

As to A23U A30G A47G A78U U127C A140G, the self-cleavage stood at 0.

Consider A24G A118G A129G, for which the self-cleavage was 0.41.

As to A24G U87A U108C, the self-cleavage was 0.02.

On to A24G A95G C105G, for which the self-cleavage came to 0.05.

Consider A24G C42U A118C, for which the self-cleavage is 0.61.

In the case of A23G U39C A47G A66G, the self-cleavage is 1.04.

As for A23G U37C A64G, the self-cleavage is 1.53.

For the variant A23G C45U A51G G74A, the self-cleavage amounted to 0.22.

Turning to A23G U43C U131C, the self-cleavage amounted to 0.52.

Consider A24G U72C U127C U130C U131A, for which the self-cleavage was determined as 0.14.

Consider A24G G50A C88A U100C, for which the self-cleavage stood at 2.03.

Turning to A23G A110U A125G, the self-cleavage came out at 0.41.

With A24G A52G U108A A118G, the self-cleavage was determined as 0.

As for A24C A98G A134G, the self-cleavage was 0.49.

For the variant A24G A62G C71A U108A A126G, the self-cleavage came out at 0.

Consider A24G A33G A64C A94G, for which the self-cleavage came to 0.69.

For the variant A23U A68G A94G, the self-cleavage amounted to 1.63.

Consider A24U A52G A82U, for which the self-cleavage was 0.27.

In the case of A23U A33C U70C A90G, the self-cleavage was determined as 1.06.

For the variant A24G A55G A117C, the self-cleavage amounted to 1.09.

Regarding A24C U87C A126G, the self-cleavage is 0.87.

With A24G U57C A68G U72C, the self-cleavage is 0.38.

With A23U A67G U108C U122C U130C, the self-cleavage was 0.01.

As to A24G A54G A82U A92G, the self-cleavage came to 0.36.

As for A24G A94G U127A, the self-cleavage was determined as 1.63.

For A24G A47G A66G, the self-cleavage is 0.37.

For A23G C76U A140G, the self-cleavage is 0.08.

Regarding A23G U57G U70C A98G, the self-cleavage was determined as 0.16.

Take A24U A111G A116G U130C: the self-cleavage turned out to be 0.

Take A24G C45U A129G: the self-cleavage is 0.02.

As for A23G U102C U122A, the self-cleavage was 1.72.

Take A24G U38C A62G A94G A110G: the self-cleavage amounted to 0.11.

In the case of A24G U87A A129G, the self-cleavage was 1.24.

With A23G G44U A69G A78G, the self-cleavage came out at 0.29.

For the variant A24G A59G A68G U131C, the self-cleavage came out at 0.91.

As for A24U A27G A55G, the self-cleavage was 0.62.

For the variant A24C U37C A51G A125G, the self-cleavage was determined as 0.46.

With A24G A62G A68G C113U, the self-cleavage is 0.03.

For the variant A24G A67G U127A, the self-cleavage came to 2.52.

In the case of A23G C77U A126G, the self-cleavage came out at 0.9.

Consider A24G U70C U122C, for which the self-cleavage is 0.19.

With A24G U43C A59G U87A, the self-cleavage was found to be 0.9.

A24G A33G A64G A82G A91C A110G: the self-cleavage stood at 0.04.

With A24U A36G C76A A140G, the self-cleavage stood at 0.11.

Consider A24U A33G U38C, for which the self-cleavage was 0.24.

In the case of A24G G29A A98G, the self-cleavage came out at 0.44.

In the case of A24C U120A A140G, the self-cleavage amounted to 2.05.

In the case of A24G A60U A94G U103C, the self-cleavage was 1.31.

With A24G A33G A55G A67G A94G U100C, the self-cleavage is 1.9.

As for A24C U49C A92G, the self-cleavage was 1.02.

As for A24G A82G A94G A129G, the self-cleavage was determined as 0.81.

Turning to A24G A30G A47G A59U G136A, the self-cleavage came out at 1.83.

Take A23G U37C U108C A114U: the self-cleavage came out at 0.

Turning to A24G G31A A55G A78U A89G G106A, the self-cleavage worked out at 0.01.

Consider A23G U38C U39C A47G, for which the self-cleavage amounted to 1.47.

Take A24G U39C C40U U108C: the self-cleavage came to 0.08.

As to A24G U70C U100C, the self-cleavage came out at 1.96.

A24G U87C U102A: the self-cleavage was 1.04.

Consider A24C A30G A52G A69C C85A, for which the self-cleavage is 1.39.

In the case of A24U A63G U102C, the self-cleavage came out at 2.14.

Consider A24G U49C A59G A66G A69G A114C U124A, for which the self-cleavage came out at 0.

As for A24G G41U A118G, the self-cleavage turned out to be 1.19.

As to A23U A96G A135U, the self-cleavage was 2.65.

Turning to A24U A56G A92G A114U, the self-cleavage stood at 0.02.

A23G U38C A67C U108C: the self-cleavage is 0.04.

On to A24C A33G U43C A114U, for which the self-cleavage stood at 0.03.

Take A23G C77U A96G U97C A118G: the self-cleavage was found to be 1.37.

As for A24G G84U A95G U131C, the self-cleavage was 0.96.

As to A23U A68G A86G A89G, the self-cleavage was 1.49.

On to A23U A62G A90G, for which the self-cleavage amounted to 1.

As for A23G C25U U131G, the self-cleavage came to 0.93.

Regarding A24G U26C A86G A118G, the self-cleavage turned out to be 0.72.

A23G U37G A96G U100C: the self-cleavage was 1.72.

Take A24G U38C A68U A78U A98G A118G U131C: the self-cleavage worked out at 0.03.

Take A24G A51G U131C: the self-cleavage came to 0.81.

Take A23G U37C A96G: the self-cleavage was determined as 1.42.

In the case of A23G G41A A51G A91G, the self-cleavage amounted to 0.27.

With A24G U39C A78U A92G, the self-cleavage came to 0.5.

Regarding A24G A69G U70A, the self-cleavage came to 1.12.

With A23U A86U U108C, the self-cleavage was determined as 0.04.

As to A23G U43A U70C U132C, the self-cleavage worked out at 0.97.

For A23U A67G U103C, the self-cleavage was 0.79.

Turning to A23G A96U U139C, the self-cleavage came to 1.25.

As to A24U A51G A60C, the self-cleavage worked out at 1.59.

For A23G U39C A66G, the self-cleavage turned out to be 1.38.

On to A23G U70C U72A A116U, for which the self-cleavage was determined as 0.02.

With A24G A52G A54G, the self-cleavage was found to be 1.

For the variant A24G A27G G58A A64G U87C A96U U127A, the self-cleavage was determined as 1.09.

In the case of A23G A116G A125G, the self-cleavage is 0.14.

Consider A24G G73A A95G U97C, for which the self-cleavage was 0.05.

Consider A23G A89U A111G, for which the self-cleavage was determined as 0.22.

As to A24U A27G A82G A91G, the self-cleavage stood at 0.38.

Turning to A24G A62G U103C A110G A117G A126C, the self-cleavage worked out at 0.08.

With A24G A51U A66G A94G, the self-cleavage is 0.69.

On to A24C U49C A117G, for which the self-cleavage came to 1.99.

In the case of A24C C42A U122C, the self-cleavage turned out to be 0.89.

A24G A62U A116G: the self-cleavage came out at 0.76.

A24G A55U A59G U70C: the self-cleavage is 0.44.

For A23G U120A A125G, the self-cleavage stood at 0.89.

Regarding A24G A51G A91G, the self-cleavage stood at 1.38.

A24G U39C A117G U120C: the self-cleavage amounted to 1.03.

With A23G C40U A52U A96G U130C, the self-cleavage was found to be 1.48.

Turning to A23G U37C A117G U122C, the self-cleavage came out at 1.02.

For the variant A23G U39C A54U A60G C77U U133C, the self-cleavage is 0.97.

As for A24G A30G A54G, the self-cleavage was 1.01.

Regarding A23G U49C C85U, the self-cleavage came to 1.67.

As for A24G A78G A118G U120C, the self-cleavage was 0.11.

Turning to A23U G75A A86G A95G A129G, the self-cleavage amounted to 0.03.

For the variant A23G C40U A135U, the self-cleavage amounted to 1.78.

As to A23G U72G G74U A116G G137C, the self-cleavage stood at 0.13.

With A23U A66U A114G, the self-cleavage was found to be 0.24.

For A24U A62G U130C U132C, the self-cleavage is 1.19.

Regarding A23U A118G U132C, the self-cleavage amounted to 0.76.

With A24G G29U A86G A90U U131C, the self-cleavage is 1.35.

As to A23G U37C A52G A62G, the self-cleavage was 1.51.

Regarding A23U A64G A68G, the self-cleavage came out at 1.71.

For the variant A23G U43C A55G U70C, the self-cleavage was 0.71.

A24G A51G A68G A82G: the self-cleavage came out at 0.74.

Take A24C U49C A52G: the self-cleavage is 1.21.

For A24G U38A U120C, the self-cleavage is 1.03.

In the case of A23G U39C A82G A96G, the self-cleavage worked out at 0.25.

With A24G A47G U108A, the self-cleavage worked out at 0.06.

Turning to A23U A62U G65U A78G A95G, the self-cleavage was 0.39.

For the variant A23G A91G U127C, the self-cleavage was 0.6.

Consider A24G A90U A94U A125G A126G, for which the self-cleavage was 0.62.

Turning to A24C A55G A59G A110C U130C G137A, the self-cleavage turned out to be 0.24.

Regarding A23U A64G A94U, the self-cleavage was determined as 1.62.

With A23G U72G A117U, the self-cleavage turned out to be 0.3.

Take A24G A62G U100C: the self-cleavage came out at 0.89.

As for A23G U37A A59U U87C, the self-cleavage is 1.04.

In the case of A24U A91G U122C, the self-cleavage was found to be 0.28.

In the case of A24G A68U A125G, the self-cleavage is 0.41.

As for A24G U39A A69G A118C U127C, the self-cleavage worked out at 0.32.

On to A24G A54G A82U A118G, for which the self-cleavage came out at 0.02.

In the case of A24C A69G U108C A114G A116G U124A, the self-cleavage is 0.

For the variant A24G U37C U108C, the self-cleavage was 0.06.

For A24G U49C A66G U131C, the self-cleavage turned out to be 0.36.

With A24G A52G A68U, the self-cleavage came out at 1.52.

As to A24G A52G A68G, the self-cleavage worked out at 1.25.

Turning to A24G A30U A82U A117G, the self-cleavage came to 0.27.

For A23G U39C A52G A86G A118G U132C, the self-cleavage stood at 0.76.

As to A24G A59G A96G U122C, the self-cleavage was found to be 2.44.
